# Data reported in US9650358B2 (priority 2013, dated 2017).
# Tests used:
# A431 cells = assay: cells; details: Homo sapiens, A-431, 24 h, read-out: A431 viability EC50
# H929 cells = assay: cells; details: Homo sapiens, NCI-H929, 24 h, read-out: H929 viability EC50
SMILES,EC50 (A431 cells),EC50 (H929 cells)
"Fc1cccc(Cn2cnc3ccc(-c4cc(N[C@H]5CC[C@H](NCC6CCCO6)CC5)ncc4Cl)cc32)c1 (relative stereo) [Example 233, trans-N-{5-chloro-4-[1-(3-fluorobenzyl)-1H-benzimidazol-6-yl]pyridin-2-yl}-N′-(tetrahydrofuran-2-ylmethyl)cyclohexane-1,4-diamine]",0.008 µM,
"COCC(C)N[C@H]1CC[C@H](Nc2cc(-c3ccc4ncn(Cc5cccc(F)c5)c4c3)c(Cl)cn2)CC1 (relative stereo) [Example 237, trans-N-{5-chloro-4-[1-(3-fluorobenzyl)-1H-benzimidazol-6-yl]pyridin-2-yl}-N-(1-methoxypropan-2-yl)cyclohexane-1,4-diamine]",0.015 µM,0.075 µM
"O=C(Nc1cc(-c2ccc3c(c2)N(Cc2cccc(F)c2)CC3)c(Cl)cn1)[C@@H]1CCCNC1 [Example 1, (3R)—N-{5-chloro-4-[1-(3-fluorobenzyl)-2,3-dihydro-1H-indol-6-yl]pyridin-2-yl}piperidine-3-carboxamide]",1.6 µM,0.53 µM
"N[C@H]1CC[C@H](Nc2cc(-c3ccc4ncn(Cc5cccc(F)c5)c4c3)c(Cl)cn2)CC1 [Example 8, trans-N-{5-chloro-4-[1-(3-fluorobenzyl)-1H-benzimidazol-6-yl]pyridin-2-yl}cyclohexane-1,4-diamine]",0.017 µM,0.12 µM
"O[C@H]1CC[C@H](Nc2cc(-c3ccc4ncn(Cc5cccc(F)c5)c4c3)c(Cl)cn2)CC1 [Example 11, trans-4-({5-chloro-4-[1-(3-fluorobenzyl)-1H-benzimidazol-6-yl]pyridin-2-yl}amino)cyclohexanol]",0.029 µM,
"O=C(Nc1cc(-c2ccc3ncn(Cc4ccc(F)cc4)c3c2)c(Cl)cn1)[C@@H]1CCCNC1 [Example 16, (3R)—N-{5-chloro-4-[1-(4-fluorobenzyl)-1H-benzimidazol-6-yl]pyridin-2-yl}piperidine-3-carboxamide]",0.025 µM,0.084 µM
"O=C(Nc1cc(-c2ccc3ncn(Cc4ccc(F)c(F)c4)c3c2)c(Cl)cn1)[C@@H]1CCCNC1 [Example 17, (3R)—N-{5-chloro-4-[1-(3,4-difluorobenzyl)-1H-benzimidazol-6-yl]pyridin-2-yl}piperidine-3-carboxamide]",0.009 µM,0.073 µM
"O=C(Nc1cc(-c2ccc3ncn(CCc4cccc(F)c4)c3c2)c(Cl)cn1)[C@@H]1CCCNC1 [Example 18, (3R)—N-(5-chloro-4-{1-[2-(3-fluorophenyl)ethyl]-1H-benzimidazol-6-yl}pyridin-2-yl)piperidine-3-carboxamide]",0.019 µM,0.11 µM
"O=C(Nc1cc(-c2ccc3ncn(Cc4ccccc4F)c3c2)c(Cl)cn1)[C@@H]1CCCNC1 [Example 21, (3R)—N-{5-chloro-4-[1-(2-fluorobenzyl)-1H-benzimidazol-6-yl]pyridin-2-yl}piperidine-3-carboxamide]",0.02 µM,
"CS(=O)(=O)N[C@H]1CC[C@H](Nc2cc(-c3ccc4ncn(Cc5cccc(F)c5)c4c3)c(Cl)cn2)CC1 [Example 28, N-[trans-4-({5-chloro-4-[1-(3-fluorobenzyl)-1H-benzimidazol-6-yl]pyridin-2-yl}amino)cyclohexyl]methanesulfonamide]",0.29 µM,0.17 µM
"O=C1CC(C(=O)Nc2cc(-c3cnc4ccn(Cc5cncc(F)c5)c4c3)c(Cl)cn2)C1 [Example 304, N-(5-chloro-4-{1-[(5-fluoropyridin-3-yl)methyl]-1H-pyrrolo[3,2-b]pyridin-6-yl}pyridin-2-yl)-3-oxocyclobutanecarboxamide]",,0.69 µM
"Cn1nnc2ccc(Cn3ccc4ncc(-c5cc(NC(=O)[C@@H]6CCCNC6)ncc5Cl)cc43)cc21 [Example 305, (3R)—N-(5-chloro-4-{1-[(1-methyl-1H-benzotriazol-6-yl)methyl]-1H-pyrrolo[3,2-b]pyridin-6-yl}pyridin-2-yl)piperidine-3-carboxamide]",,2.3 µM
"O=C(Cn1ccc2ncc(-c3cc(NC(=O)[C@@H]4CCCNC4)ncc3Cl)cc21)C1CCOCC1 [Example 306, (3R)—N-(5-chloro-4-{1-[2-oxo-2-(tetrahydro-2H-pyran-4-yl)ethyl]-1H-pyrrolo[3,2-b]pyridin-6-yl}pyridin-2-yl)piperidine-3-carboxamide]",,6.9 µM
"O=C(Nc1cc(-c2cnc3ccn(CC(O)C4CCOCC4)c3c2)c(Cl)cn1)[C@@H]1CCCNC1 (stereo partly drawn) [Example 307, (3R)—N-(5-chloro-4-{1-[2-hydroxy-2-(tetrahydro-2H-pyran-4-yl)ethyl]-1H-pyrrolo[3,2-b]pyridin-6-yl}pyridin-2-yl)piperidine-3-carboxamide]",,> 10 µM
"C[C@H](c1cccc(F)c1)n1nnc2cc(F)c(-c3cc(NC(=O)[C@@H]4CCCNC4)ncc3Cl)cc21 [Example 309, (3R)—N-(5-chloro-4-{5-fluoro-1-[(1R)-1-(3-fluorophenyl)ethyl]-1H-benzotriazol-6-yl}pyridin-2-yl)piperidine-3-carboxamide]",,0.97 µM
"COC(=O)c1ccc(Cn2cnc3ccc(-c4cc(NC(=O)[C@@H]5CCCNC5)ncc4Cl)cc32)cc1 [Example 310, methyl 4-{[6-(5-chloro-2-{[(3R)-piperidin-3-ylcarbonyl]amino}pyridin-4-yl)-1H-benzimidazol-1-yl]methyl}benzoate]",,0.36 µM

SMILES,EC50 (A431 cells),EC50 (H929 cells)
"COC(=O)c1ccc(Cn2nnc3ccc(-c4cc(NC(=O)[C@@H]5CCCNC5)ncc4Cl)cc32)cc1 [Example 311, methyl 4-{[6-(5-chloro-2-{[(3R)-piperidin-3-ylcarbonyl]amino}pyridin-4-yl)-1H-benzotriazol-1-yl]methyl}benzoate]",,0.35 µM
"O=C(Nc1cc(-c2ccc3ncn(CCCc4cccc(F)c4)c3c2)c(Cl)cn1)[C@@H]1CCCNC1 [Example 312, (3R)—N-(5-chloro-4-{1-[3-(3-fluorophenyl)propyl]-1H-benzimidazol-6-yl}pyridin-2-yl)piperidine-3-carboxamide]",,0.71 µM
"O=C(Nc1cc(-c2ccc3ncn(CC4CCOCC4)c3c2)ccn1)[C@@H]1CCCNC1 [Example 316, (3R)—N-{4-[1-(tetrahydro-2H-pyran-4-ylmethyl)-1H-benzimidazol-6-yl]pyridin-2-yl}piperidine-3-carboxamide]",,0.47 µM
"O=C(Nc1cc(-c2cnc3ccn(Cc4cncc(F)c4)c3c2)c(Cl)cn1)[C@@H]1CCCNC1 [Example 317, (3R)—N-(5-chloro-4-{1-[(5-fluoropyridin-3-yl)methyl]-1H-pyrrolo[3,2-b]pyridin-6-yl}pyridin-2-yl)piperidine-3-carboxamide]",,0.96 µM
"COc1cc2ncn(Cc3cccc(F)c3)c2cc1-c1cc(NC(=O)[C@@H]2CCCNC2)ncc1Cl [Example 319, (3R)—N-{5-chloro-4-[1-(3-fluorobenzyl)-5-methoxy-1H-benzimidazol-6-yl]pyridin-2-yl}piperidine-3-carboxamide]",,0.54 µM
"O=C(O)c1ccc(Cn2cnc3ccc(-c4cc(NC(=O)[C@@H]5CCCNC5)ncc4Cl)cc32)cc1 [Example 320, 4-{[6-(5-chloro-2-{[(3R)-piperidin-3-ylcarbonyl]amino}pyridin-4-yl)-1H-benzimidazol-1-yl]methyl}benzoic acid]",,> 10 µM
"O=C(Nc1cc(-c2ccc3ncn(Cc4cccs4)c3c2)c(Cl)cn1)[C@@H]1CCCNC1 [Example 324, (3R)—N-{5-chloro-4-[1-(thiophen-2-ylmethyl)-1H-benzimidazol-6-yl]pyridin-2-yl}piperidine-3-carboxamide]",,0.28 µM
"O=C(Nc1cc(-c2ccc3nnn(Cc4cccs4)c3c2)c(Cl)cn1)[C@@H]1CCCNC1 [Example 325, (3R)—N-{5-chloro-4-[1-(thiophen-2-ylmethyl)-1H-benzotriazol-6-yl]pyridin-2-yl}piperidine-3-carboxamide]",,1.6 µM
"CS(=O)(=O)Cc1cccc(Nc2cc(-c3ccc4ncn(Cc5cccc(F)c5)c4c3)c(Cl)cn2)c1 [Example 328, 5-chloro-4-[1-(3-fluorobenzyl)-1H-benzimidazol-6-yl]-N-{3-[(methylsulfonyl)methyl]phenyl}pyridin-2-amine]",,1.2 µM
"O=C(Nc1cc(-c2cc(F)c3ncn(CC4CCOCC4)c3c2)c(Cl)cn1)[C@@H]1CCCNC1 [Example 329, (3R)—N-{5-chloro-4-[4-fluoro-1-(tetrahydro-2H-pyran-4-ylmethyl)-1H-benzimidazol-6-yl]pyridin-2-yl}piperidine-3-carboxamide]",,0.28 µM
"CCOC(=O)NS(=O)(=O)N1CCC[C@@H](C(=O)Nc2cc(-c3ccc4ncn(CC5CCOCC5)c4c3)c(Cl)cn2)C1 [Example 330, ethyl {[(3R)-3-({5-chloro-4-[1-(tetrahydro-2H-pyran-4-ylmethyl)-1H-benzimidazol-6-yl]pyridin-2-yl}carbamoyl)piperidin-1-yl]sulfonyl}carbamate]",,6.4 µM
"Cn1cnc2ccc(-c3ccnc(NC(=O)[C@@H]4CCCNC4)c3)cc21 [Example 336, (3R)—N-[4-(1-methyl-1H-benzimidazol-6-yl)pyridin-2-yl]piperidine-3-carboxamide]",,0.48 µM
"CC(C)(C)OC(=O)N1C[C@H]2CC(C(=O)Nc3cc(-c4ccc5ncn(CC6CCOCC6)c5c4)c(Cl)cn3)C[C@H]2C1 (stereo partly drawn) [Example 337, tert-butyl (3aR,6aS)-5-({5-chloro-4-[1-(tetrahydro-2H-pyran-4-ylmethyl)-1H-benzimidazol-6-yl]pyridin-2-yl}carbamoyl)hexahydrocyclopenta[c]pyrrole-2(1H)-carboxylate]",,0.17 µM
"CNC(=O)N1C[C@H]2CC(C(=O)Nc3cc(-c4ccc5ncn(CC6CCOCC6)c5c4)c(Cl)cn3)C[C@H]2C1 (stereo partly drawn) [Example 338, (3aR,6aS)—N^5-{5-chloro-4-[1-(tetrahydro-2H-pyran-4-ylmethyl)-1H-benzimidazol-6-yl]pyridin-2-yl}-N^2-methylhexahydrocyclopenta[c]pyrrole-2,5(1H)-dicarboxamide]",,0.2 µM
"O=C(O)[C@H]1CC[C@@H](Nc2cc(-c3ccc4ncn(Cc5cccc(F)c5)c4c3)c(Cl)cn2)CC1 [Example 339, cis-4-({5-chloro-4-[1-(3-fluorobenzyl)-1H-benzimidazol-6-yl]pyridin-2-yl}amino)cyclohexanecarboxylic acid]",,8.9 µM
